Laboratory results from US9034877B2 (Wayne State University, priority 2009, dated 2015).

Target: hD2 receptor (Homo sapiens, UniProt P14416)
Settings: [35S]GTPγS, hD2 in CHO cells

Chain of UniProt P14416 (P14416 whole entry): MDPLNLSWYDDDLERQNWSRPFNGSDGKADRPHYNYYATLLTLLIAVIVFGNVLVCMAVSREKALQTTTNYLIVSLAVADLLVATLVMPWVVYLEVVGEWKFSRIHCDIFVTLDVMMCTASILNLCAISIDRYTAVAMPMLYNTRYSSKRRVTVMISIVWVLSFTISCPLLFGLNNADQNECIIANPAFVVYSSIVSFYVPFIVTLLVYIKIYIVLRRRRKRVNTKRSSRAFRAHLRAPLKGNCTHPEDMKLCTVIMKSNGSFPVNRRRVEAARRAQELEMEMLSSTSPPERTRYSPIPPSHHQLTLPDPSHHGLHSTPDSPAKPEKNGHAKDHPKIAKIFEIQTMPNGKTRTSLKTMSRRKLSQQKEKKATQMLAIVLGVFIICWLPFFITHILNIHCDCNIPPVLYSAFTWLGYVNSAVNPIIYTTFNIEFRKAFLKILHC

SMILES	Agonism at D2 compared with dopamine	EC50 (read-out: EC50, D2 receptor) [nM]
CCCN(CCN1CCN(c2ccnc3c(O)cccc23)CC1)C1CCc2ccc(O)cc2C1 (single isomer, unassigned; (+)) [(+)19a, (+)-4-(4-(2-((7-hydroxy-1,2,3,4-tetrahydronaphthalen-2-yl) (propyl)amino)ethyl)piperazin-1-yl)quinolin-8-ol]	full or near-complete agonism	
CCCN(CCN1CCN(C(=O)c2ccc3[nH]ccc3c2)CC1)[C@H]1CCc2c(O)cccc2C1 [Compound (−)-45, (S)-(4-{2-[(5-Hydroxy-1,2,3,4-tetrahydro-naphthalen-2-yl)-propyl-amino]-ethyl}-piperazin-1-yl)-(1H-indol-5-yl)-methanone]	full agonist activity	10.4
CCCN(CCC)CCc1cccc2c1CC(=O)N2 [ropinirole, reference compound]	full or near-complete agonism	
CCCN(CCN1CCN(c2ccnc3c(O)cccc23)CC1)C1CCc2c(O)cccc2C1 (single isomer, unassigned; (-)) [Compound (−)19b, (−)-4-(4-(2-((5-hydroxy-1,2,3,4-tetrahydronaphthalen-2-yl) (propyl)amino)ethyl)piperazin-1-yl)quinolin-8-ol]	full or near-complete agonism	
